The other results are listed elsewhere or left out. Further columns of the screen follow, without active or inactive calls.

Common to all, as to assay: Primary Screen for Target Class Profiling of Small Molecule Inhibitors of Methyltransferases
Test [1] has as its target Glycine N-methyltransferase (Homo sapiens) (UniProt Q14749). As to conditions: purified enzyme, MTase-Glo SAH luminescence; measured here: GNMT inhibition; at 40 µM; stronger effect = lower value. In short, it runs like this: (§1)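 Each enzyme was reacted with SAM and its substrate, with compounds tested once at 40 uM; SAH formed was read by MTase-Glo luminescence.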
Test [2] deals with Guanidinoacetate N-methyltransferase (Homo sapiens) (UniProt Q14353). To be noted: purified enzyme, MTase-Glo SAH luminescence; measured here: GAMT inhibition; at 40 µM; stronger effect = lower value. Summed up:
as §1

Test [3] has as its target Histamine N-methyltransferase (Homo sapiens) (UniProt P50135). To be noted: purified enzyme, MTase-Glo SAH luminescence; measured here: HNMT inhibition; at 40 µM; stronger effect = lower value. In short, it runs like this: as §1
Test [4] has as its target Nicotinamide N-methyltransferase (Homo sapiens) (UniProt P40261). As to conditions: purified enzyme, MTase-Glo SAH luminescence; measured here: NNMT inhibition; at 40 µM; stronger effect = lower value. Summed up:
as §1

Test [5] has as its target Phenylethanolamine N-methyltransferase (Homo sapiens) (UniProt P11086). To be noted: purified enzyme, MTase-Glo SAH luminescence; measured here: PNMT inhibition; at 40 µM; stronger effect = lower value. In short, it runs like this:
as §1
% is set by controls: 0 for no effect and ±100 for the full control effect.

Turning to `CC(=O)N1CCC2(CCN(C(=O)c3ccc(Cl)cc3)CC2)Oc2ccccc21`, the activity change, negative = inhibition was -3.3% in test [1]; -2.94% in test [2]; -12.5% in test [3]; -9.78% in test [4]; -5.41% in test [5].

Turning to `O=C(Cn1ccc2cc(S(=O)(=O)N3CCCC3)ccc21)NCCC1=CCCCC1`, the activity change, negative = inhibition in test [1] is -0.207%; in test [2] it was 2.03%; in test [3], 4.91%; in test [4], -1.88%; in test [5], -7.69%.

As for `CCn1nc(CC(C)C)cc1C(=O)N(C)C1CCCN(C2Cc3ccccc3C2)C1` (stereo not drawn), the activity change, negative = inhibition in test [1] is -1.84%; in test [2] it was -6.76%; in test [3], 1.02%; in test [4], -2.8%; in test [5] it was -3.75%.

`O=C(CC1CC1)NC1CCCc2nc(-c3ccccc3)ncc21` (stereo not drawn): the activity change, negative = inhibition in test [1] is 0.474%; in test [2] it was -0.256%; in test [3] it was 2.38%; in test [4], -2.48%; in test [5], 13%.

`CN(C)C[C@H]1O[C@@H](CO)[C@@H](O)[C@H]1N1CCN(c2ncccn2)CC1`: the activity change, negative = inhibition in test [1] was -1.1%; in test [2], -2.22%; in test [3], 1.02%; in test [4] it was -2.6%; in test [5], -2.23%.

In the case of `C=C1C(O)C(O)C2(CC3C(C)=CCC4C(C)(C(=O)O)CCCC34C)OC2C1O` (stereo not drawn), the activity change, negative = inhibition in test [1] is 0%; in test [2], -7.04%; in test [3], 7.86%; in test [4], -19.2%; in test [5] it was -8.15%.

Take `COc1ccccc1CNC(=O)C1(C)Cn2nc(-c3ccccc3)cc2C(=O)N1c1ccccc1C` (stereo not drawn): the activity change, negative = inhibition in test [1] came out at 7.34%; in test [2] it was 3.08%; in test [3], 10.5%; in test [4] it was 9.45%; in test [5] it was 2.45%.

On to `C=C(C)COc1ccc(C(=O)N2CCN3C(=O)CN(C)C(=O)C3C2)cc1` (stereo not drawn), for which the activity change, negative = inhibition in test [1] was 1.07%; in test [2] it was -0.196%; in test [3] it was 2.24%; in test [4], -2.8%; in test [5] it was -0.502%.

Consider `Cc1cc(C)c2[nH]c(CN3CCC(N)C3)cc(=O)c2c1` (stereo not drawn), for which the activity change, negative = inhibition in test [1] was -5.77%; in test [2], -4.64%; in test [3] it was -3.1%; in test [4] it was -13.6%; in test [5], -5.74%.

With `O=C(CCc1nnc2n(Cc3ccc(F)cc3)c(=O)c3ccccc3n12)N1CCc2ccccc2C1`, the activity change, negative = inhibition in test [1] is 6.36%; in test [2], 0%; in test [3] it was 4.35%; in test [4], 11.5%; in test [5] it was -0.306%.

`CC(C)CN1CC(COc2ccc3ccccc3c2)Oc2ccnc(-c3ccc(OCC(=O)O)cc3)c2C1=O` (stereo not drawn): the activity change, negative = inhibition in test [1] was -13.2%; in test [2] it was -1.94%; in test [3], -1.68%; in test [4], -9.84%; in test [5] it was 15.4%.

Consider `CCCn1c(=O)c2ccc(C(=O)NCC(C)C)cc2n2c(=O)n(CC(=O)c3cccc(Cl)c3)nc12`, for which the activity change, negative = inhibition in test [1] was 6.69%; in test [2], 1.44%; in test [3] it was 7.75%; in test [4] it was 2.73%; in test [5], 7.12%.

Consider `O=C(Cc1ccc(-n2cnnn2)cc1)N[C@@H]1COCC[C@@H]1OCc1ccccc1`, for which the activity change, negative = inhibition is -4.86% in test [1]; -1.94% in test [2]; -0.193% in test [3]; -7.2% in test [4]; 2.65% in test [5].

For `CCC1c2ccc(C)n2CCN1C(=O)Nc1ccc(Cl)cc1` (stereo not drawn), the activity change, negative = inhibition in test [1] is -5.41%; in test [2], -0.287%; in test [3], -0.587%; in test [4] it was -2.28%; in test [5], -3.51%.

Regarding `CCCCC(=O)N(Cc1ccc(-c2ccccc2-c2nn[nH]n2)cc1)[C@H](C(=O)O)C(C)C`, the activity change, negative = inhibition in test [2] was -1.77%; in test [4], -13.2%; in test [5] it was 0.794%.

For the compound `Cc1cc(C(=O)N[C@@H]2CCC[C@@H](C(=O)N(C)Cc3cccnc3)CC(=O)N(C)C2)no1`, the activity change, negative = inhibition is -4.19% in test [1]; -5.46% in test [2]; -2.24% in test [3]; -7.8% in test [4]; -5.5% in test [5].

Regarding `Cc1ccc(C(=O)N(C)CC2CCOC2)cc1` (stereo not drawn), the activity change, negative = inhibition in test [1] was -1.38%; in test [2], 0.183%; in test [3], 1.28%; in test [4], 1.18%; in test [5], 14.6%.

As for `CCc1nnc(NS(=O)(=O)c2ccc(NC(=S)NC(=O)/C=C/c3ccc(F)cc3)cc2)s1`, the activity change, negative = inhibition in test [1] is -43.5%; in test [2], -15%; in test [3] it was 6.54%; in test [4], -37.9%; in test [5] it was -4.03%.

Consider `CN1CCN(C(=O)c2ccc(Nc3nccc(-c4cccs4)n3)cc2Cl)CC1`, for which the activity change, negative = inhibition was -51.8% in test [1]; 10.6% in test [2]; -0.02% in test [3]; -36.5% in test [4]; 3.73% in test [5].

As to `CCOCCCNC(=O)N1Cc2c(sc3c2CCCC3)-n2cccc2C1c1cccc(OCC)c1` (stereo not drawn), the activity change, negative = inhibition was -3.39% in test [1]; 0% in test [2]; 0.754% in test [3]; -12.1% in test [4]; 3.87% in test [5].

Regarding `NCCCCCCCCCCN`, the activity change, negative = inhibition in test [1] was -2.53%; in test [2] it was 12.6%; in test [3] it was 0.221%; in test [4], -0.113%; in test [5] it was 12.1%.

Take `Cc1ccc(N2C(=O)c3cc4sccc4n3CC2(C)C(=O)NC2CCCC(C)C2C)cc1` (stereo not drawn): the activity change, negative = inhibition in test [1] was 0.533%; in test [2], 0%; in test [3], -0.668%; in test [4], 2.7%; in test [5], -1.03%.

For `CC(=O)/C=C1\C(=O)N(C)c2ccccc21`, the activity change, negative = inhibition in test [1] was -17.8%; in test [2], 2.1%; in test [3], -0.544%; in test [4] it was -7.71%; in test [5], 1.97%.

On to `COc1cc(O)cc2c1C(=O)OC(C)CCCCCCC2` (stereo not drawn), for which the activity change, negative = inhibition in test [1] is -4.16%; in test [2], -4.99%; in test [3], 1.43%; in test [4], -21.5%; in test [5], -3.01%.

With `CCC(C)NC(=O)c1ccc2c(=O)n(C)c3nnc(SCc4cc(C)ccc4C)n3c2c1` (stereo not drawn), the activity change, negative = inhibition in test [1] came out at 5.31%; in test [2] it was 1.2%; in test [3], 2.64%; in test [4], 12.4%; in test [5], 1.96%.

In the case of `CCCCN1C(=O)c2c(NC(C)=O)c3cc(OC)ccc3n2CC1(C)C(=O)NC1CCCCC1` (stereo not drawn), the activity change, negative = inhibition in test [1] came out at 6.75%; in test [2], 0%; in test [3], 10.8%; in test [4], 15.6%; in test [5], 3.45%.

On to `O=C1[C@H]2CN(S(=O)(=O)c3ccc(F)cc3)CCN2C(=O)N1CCO`, for which the activity change, negative = inhibition was -5.77% in test [1]; -8.88% in test [2]; -7.56% in test [3]; -4.33% in test [4]; -3.17% in test [5].

For the compound `CC1(C(=O)NC2CCCCCC2)Cn2c(cc3sccc32)C(=O)N1Cc1cccc(Cl)c1` (stereo not drawn), the activity change, negative = inhibition in test [1] is -5%; in test [2] it was 3.3%; in test [3], -3.85%; in test [4], -4.46%; in test [5] it was -3.47%.

In the case of `COc1ccc(Cn2c3c(c(=O)n2Cc2ccccc2)CCN(Cc2c(C)noc2C)C3)cc1`, the activity change, negative = inhibition in test [1] is -2%; in test [2] it was 3.14%; in test [3] it was 1.86%; in test [4], -9.75%; in test [5], -1.03%.

Regarding `Cc1cc(C(=O)Nc2cc(Oc3ccc4nc(NC(=O)C5CC5)cn4n3)ccc2C)n(C)n1`, the activity change, negative = inhibition in test [1] was -23.3%; in test [2] it was -9.09%; in test [3] it was -6.61%; in test [4], -20.1%; in test [5], -5.64%.

`Cc1ccc(CN2C(=O)c3ccccc3CC2(C)C(=O)NCc2ccccc2)cc1` (stereo not drawn): the activity change, negative = inhibition is -0.721% in test [1]; 6.06% in test [2]; -4.72% in test [3]; -6.53% in test [4]; -3.59% in test [5].

Regarding `O=C(c1ccncc1)N1CC(N(Cc2ccncc2)CC2CC2)C1`, the activity change, negative = inhibition in test [1] is -0.783%; in test [2], -0.533%; in test [3], -0.486%; in test [4], -1.37%; in test [5] it was 0.755%.

Take `CCc1ccc(N2C(=O)c3ccccc3CC2(C)C(=O)NCc2ccccc2C)cc1` (stereo not drawn): the activity change, negative = inhibition was -3.25% in test [1]; 0% in test [2]; 1.74% in test [3]; -0.964% in test [4]; 2.77% in test [5].

On to `C=C1CC23CC1CCC2C12OC(=O)C(C)(CCC1O)C2C3C(=O)O` (stereo not drawn), for which the activity change, negative = inhibition is -1.68% in test [1]; -3.12% in test [2]; 4.88% in test [3]; -13.5% in test [4]; -7.29% in test [5].

`COc1ccc(C(=O)N2CCC([C@@H]3CNC[C@H]3CO)CC2)cc1`: the activity change, negative = inhibition is -0.615% in test [1]; 0.298% in test [2]; -0.736% in test [3]; 3.38% in test [4]; -5.04% in test [5].

On to `COc1ccc(N2CCN(CCNS(=O)(=O)c3ccc4oc(=O)c5ncn(C)c5c4c3)CC2)cc1`, for which the activity change, negative = inhibition in test [1] was 0.349%; in test [2], 2.5%; in test [3], -12.5%; in test [4] it was -4.1%; in test [5], -0.987%.

As for `Cc1noc(C)c1C(=O)N1CC(N2C(=O)c3c(c(C)nn3-c3ccccc3)C2C)C1` (stereo not drawn), the activity change, negative = inhibition in test [1] was -5.29%; in test [2], -2.53%; in test [3] it was -0.498%; in test [4], -11.3%; in test [5], -1.73%.

Regarding `Cc1ccc(CNC(=O)C2(C)Cn3nc(C(=O)NCCC(C)C)cc3C(=O)N2C)cc1` (stereo not drawn), the activity change, negative = inhibition in test [1] came out at 5.44%; in test [2] it was 1.29%; in test [3], 4.07%; in test [4], 10.9%; in test [5], 4.06%.

In the case of `COCC(=O)N1CC(F)(F)C[C@H]1c1nc(-c2cccnc2)no1`, the activity change, negative = inhibition in test [1] is 0.647%; in test [2], 1.49%; in test [3], 2.26%; in test [4], -0.166%; in test [5], 3.48%.

As to `COc1cc(CNCCC(C)C)ccc1OCC(O)CN1CCSCC1` (stereo not drawn), the activity change, negative = inhibition in test [1] is -5.56%; in test [2], -12%; in test [3], -10.2%; in test [4] it was -17.5%; in test [5], -12.9%.
